Data taken from PMC4336329 (PLoS ONE, 2015).
Hit rate of the full screen: of about 310,000 compounds, about 2,200 (0.71%) showed an effect of 50% or more. Effects have a minus sign here. This is one part of the list.

The compounds below were run against human ether-à-go-go-related gene (hERG) potassium channel (human, UniProt Q12809) (assay: primary screen, population patch clamp on CHO cells stably expressing hERG).
Chain of human ether-à-go-go-related gene (hERG) potassium channel (Q12809 whole entry, looked up): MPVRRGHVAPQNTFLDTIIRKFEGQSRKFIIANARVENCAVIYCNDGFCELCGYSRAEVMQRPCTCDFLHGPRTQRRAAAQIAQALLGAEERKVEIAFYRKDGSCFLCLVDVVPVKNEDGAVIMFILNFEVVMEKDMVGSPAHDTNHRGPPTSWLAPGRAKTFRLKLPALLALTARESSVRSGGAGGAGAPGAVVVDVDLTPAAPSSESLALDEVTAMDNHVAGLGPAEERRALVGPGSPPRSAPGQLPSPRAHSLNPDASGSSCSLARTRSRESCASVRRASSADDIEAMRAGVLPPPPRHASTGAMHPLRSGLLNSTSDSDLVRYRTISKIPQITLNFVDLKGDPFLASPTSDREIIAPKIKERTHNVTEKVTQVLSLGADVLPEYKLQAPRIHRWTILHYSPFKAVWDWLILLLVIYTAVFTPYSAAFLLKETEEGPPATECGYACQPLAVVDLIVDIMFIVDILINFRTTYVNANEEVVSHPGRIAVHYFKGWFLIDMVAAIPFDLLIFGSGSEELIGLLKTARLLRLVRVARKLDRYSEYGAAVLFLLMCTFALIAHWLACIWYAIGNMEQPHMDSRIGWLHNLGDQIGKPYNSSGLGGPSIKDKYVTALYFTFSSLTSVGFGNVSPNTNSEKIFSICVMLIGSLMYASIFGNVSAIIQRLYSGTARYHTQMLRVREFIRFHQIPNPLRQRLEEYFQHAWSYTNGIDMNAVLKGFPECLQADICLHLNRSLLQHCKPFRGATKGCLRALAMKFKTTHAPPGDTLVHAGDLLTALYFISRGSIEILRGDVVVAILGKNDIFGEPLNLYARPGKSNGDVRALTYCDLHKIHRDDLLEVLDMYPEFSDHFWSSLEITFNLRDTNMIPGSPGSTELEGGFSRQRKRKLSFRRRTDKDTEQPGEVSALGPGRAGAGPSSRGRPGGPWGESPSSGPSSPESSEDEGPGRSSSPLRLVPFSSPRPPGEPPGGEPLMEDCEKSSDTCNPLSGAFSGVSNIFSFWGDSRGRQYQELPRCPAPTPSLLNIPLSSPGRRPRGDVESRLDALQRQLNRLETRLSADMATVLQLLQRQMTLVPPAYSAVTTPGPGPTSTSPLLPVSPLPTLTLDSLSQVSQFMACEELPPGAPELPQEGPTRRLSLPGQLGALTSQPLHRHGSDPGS

| SMILES | hERG current change (%, negative = inhibition) at 1uM [%] |
| --- | --- |
| COc1ccccc1NCC(=O)Nc1cc(S(=O)(=O)N2CCOCC2)ccc1N1CCOCC1 | -12.4 |
| COC(=O)CSc1nnc(NC(=O)c2ccc3c(c2)OCO3)s1 | -13.7 |
| COc1ccccc1-c1cn[nH]c1-c1ccc(O)cc1O | 16.2 |
| COc1ccc(NC(=O)CN2CCN(c3ccc(Cl)cc3)CC2)c(OC)c1 | 8.1 |
| CCC1Oc2ccc(C)cc2N(CC(=O)NCCCN2CCN(Cc3ccccc3)CC2)C1=O (stereo not drawn) | -8.06 |
| NS(=O)(=O)c1ccc(NC(=S)NC(=O)c2ccc(-c3ccccc3)cc2)cc1 | 0.751 |
| Cc1cc(S(=O)(=O)NCC2CCCO2)c(C)cc1Br (stereo not drawn) | 13 |
| COc1ccc([N+](=O)[O-])cc1NC(=O)Cn1ccc(C(F)(F)F)n1 | 21.8 |
| CC(NC(=S)NCc1ccccc1)C12CC3CC(CC(C3)C1)C2 (stereo not drawn) | 13.2 |
| COc1ccc(C(=O)Oc2cccc3cccnc23)cc1S(=O)(=O)N1CCOCC1 | 10.4 |
| O=C(c1ccc(O)cc1)c1ccc(C(=O)c2ccc(O)cc2)cc1 | 3.11 |
| Cc1ccc(C)c(Cc2c(C)nc3c(C(=O)N4CCOCC4)cnn3c2C)c1 | -9.44 |
| CC1=NOC(=O)/C1=C/c1ccc(N(C)C)cc1 | 4.93 |
| Cc1cc(-c2nnc3n2N=C(C(C)(C)C)CS3)n[nH]1 | 13.7 |
| Cc1cc(C)c2c(c1)[C@@H]1C=CC[C@@H]1[C@H](c1ccc(S(=O)(=O)N3CCOCC3)cc1)N2 | 4.32 |
| CCNC(=O)COc1cccc2ccccc12 | -5.49 |
| O=C(N/N=C\c1ccc[nH]1)C1COc2ccccc2O1 (stereo not drawn) | 6.88 |
| CCOc1cc(C(C#N)N2CCCCC2)ccc1OC (stereo not drawn) | -0.587 |
| CC(C)N1CCc2c(sc(NC(=O)CCc3ccccc3)c2C(N)=O)C1.Cl | -1.98 |
| CN(C(=O)c1ccccc1Cl)c1ccccc1 | 3.61 |
| COc1ccccc1CC(=O)Nc1ccccc1C(=O)O | 14.1 |
| CCN(C(=O)COC(=O)CNC(=O)c1ccc2ccccc2c1)C1CCS(=O)(=O)C1 (stereo not drawn) | 4.72 |
| CC(=O)Nc1ccc(N/C=C/C(=O)c2ccccc2)cc1 | 11.9 |

| SMILES | hERG current change (%, negative = inhibition) at 1uM [%] |
| --- | --- |
| CCN(c1ccccc1)S(=O)(=O)c1ccc2c(c1)N(C(C)=O)CCS2 | 3.38 |
| CC1CCCCC1NC(=O)c1cn(C)c2ccc(S(=O)(=O)N3CCOCC3)cc2c1=O (stereo not drawn) | 6.11 |
| Cc1ccc(C)c(NC(=O)CS(=O)(=O)c2cccc3nsnc23)c1 | 3.88 |
| CCOC(=O)N1CCN(CC(=O)Nc2ccc(F)c(F)c2F)CC1 | 15.5 |
| CCOC(=O)N1CCN(c2c(NCCCN(CC)CC)c(=O)c2=O)CC1 | 9.34 |
| COc1ccc(C(OCC(O)CNC(C)c2ccccc2)c2ccc(OC)cc2)cc1 (stereo not drawn) | -7.6 |
| O=C(O)Cn1c(CCS(=O)(=O)c2ccc(Br)cc2)nc2ccccc21 | 10.1 |
| CC(C)(C)c1ccc(C(=O)c2cn[nH]c2-c2ccccc2O)cc1 | 7.86 |
| Cn1c(O)c(C=Nc2ccc(F)cc2)c(=O)[nH]c1=O | 13.5 |
| O=C(N/N=C/c1ccccn1)c1ccccc1 | 6.27 |
| CSc1ccc(C2Nc3cccc4cccc(c34)N2)cc1 | 16.3 |
| CCc1ccc(S(=O)(=O)Nc2ccc(C)c(NS(C)(=O)=O)c2)cc1 | 4.12 |
| O=c1nc(Nc2ccc(OCc3ccccc3)cc2)sc2ncccc12 | 9.18 |
| O=C(Cn1nnc(-c2ccccc2)n1)OCc1ccccc1 | 18.5 |
| CN(C(=O)c1cc2n(n1)C(C(F)(F)F)CC(c1ccco1)N2)c1ccccc1 (stereo not drawn) | -4.69 |
| Cc1ccc(S(=O)(=O)CCc2nc3ccccc3[nH]2)cc1 | -1.24 |
| CSc1nsc(SCC(=O)Nc2cccc(C(C)=O)c2)n1 | 12.7 |
| O=C1CN(c2ccccc2)C(=O)N1 | 16.2 |
| CC(C)OCCCn1c(=O)c2ccccc2n2c(CCC(=O)N3CCN(c4ccccn4)CC3)nnc12 | -45.9 |
| C=CCn1cc(/C=N\NC(=O)c2cc3c(ccc4ccccc43)o2)c2ccccc21 | 5.2 |
| CCCN(CC(=O)Nc1ccccc1C)C(=O)c1ccc2c(c1)OCO2 | 12.3 |
| COc1ccccc1C(=O)NC(CCSC)C(=O)NCCCn1nc(C)cc1C (stereo not drawn) | 4.64 |
| CCOCCCNC(=O)c1ccc(Cn2c(=O)[nH]c3ccsc3c2=O)cc1 | 2.8 |

| SMILES | hERG current change (%, negative = inhibition) at 1uM [%] |
| --- | --- |
| O=C(COc1ccc(Cl)cc1)NCc1nnc(SCC(=O)NCCc2ccccc2)o1 | 5.77 |
| CN(C)S(=O)(=O)c1ccc(C(=O)OCC(=O)Nc2ccccc2OC(F)F)cc1 | 0.166 |
| CCCCn1c(=O)[nH]c(=O)c2c1nc(-c1ccncc1)n2CCOC | 9.21 |
| N#Cc1nc(COc2ccc(Cl)cc2)oc1N1CCN(Cc2ccccc2)CC1 | 10.2 |
| Cc1sc2nc3n(c(=O)c2c1C)NC(=O)CC3 | 10.4 |
| C=CCNC(=O)N[C@@H](CCSC)C(=O)OC | -3.48 |
| COc1cc(Cl)cc(C(c2c(C(=O)O)[nH]c3ccccc23)c2c(C(=O)O)[nH]c3ccccc23)c1O | 8.43 |
| C[C@H]1CCC(=O)N([C@H](CN=[N+]=[N-])Cc2ccccc2)CC1 | 9.09 |
| Cc1ccc(C2CC(=O)N3CN(c4ccc(Br)cc4)CSC3=C2C#N)o1 (stereo not drawn) | 6.59 |
| O=C(CSc1nnc(-c2ccco2)o1)c1ccc([N+](=O)[O-])cc1 | -2.45 |
| CCN(CC)c1ccc(NC(=O)COc2ccc(C)cc2)cc1 | -9.36 |
| O=C(COc1ccccc1)N/N=C/c1ccc([N+](=O)[O-])o1 | 7.87 |
| O=C(Nc1ccccc1F)c1ccc(Br)o1 | 15.7 |
| c1cc2c(cc1Oc1nc(N3CCOCC3)nc(N3CCOCC3)n1)OCO2 | 13.8 |
| CCn1ncc(Br)c1C(=O)Nc1ccccc1C(=O)OC | 0.669 |
| COc1cc(OC)nc(Oc2ccccc2C(=O)Oc2ccc(Cl)cc2)n1 | -13.1 |
| O=c1[nH]c(Nc2ccccc2Cl)cc2ccccc12 | 15.1 |
| O=C(Nc1nonc1-c1ccc(Cl)cc1)c1ccccc1 | 5.22 |
| Cc1ccc(S(=O)(=O)NC(=O)Nc2cc(C(C)(C)C)on2)cc1 | 9.16 |
| Cc1cccc2cc(C(c3nnnn3C(C)(C)C)N3CCN(C(=O)c4ccco4)CC3)c(=O)[nH]c12 (stereo not drawn) | 4.38 |
| CN(C)C(=O)CCCCCCCCC(=O)N(C)C | 11.2 |
| COc1ccc(/C(C)=N\NS(C)(=O)=O)c(OC)c1 | 12 |
| O=C(NNC1=C(C(=O)C(F)(F)F)CCC1)c1ccncc1 | 16.3 |

| SMILES | hERG current change (%, negative = inhibition) at 1uM [%] |
| --- | --- |
| CCOc1ccc(N(CC(=O)NC2CCCCC2)C(=O)CSc2nnc(COc3ccccc3)o2)cc1 | -4.53 |
| Cc1ccc(-c2ocnc2C(=O)Nc2ccccc2NC(=O)c2ccccn2)cc1 | 17.9 |
| CCc1ccc(-n2c(=O)c3ccccc3n(CC(=O)NCc3ccco3)c2=O)cc1 | 13.5 |
| O=C(CSc1nnc(-c2ccccn2)n1-c1ccc(Cl)cc1)Nc1ccc2c(c1)OCO2 | 18.2 |
| COc1ccccc1C(C)NC(=O)c1cc(=O)[nH]c2ccccc12 (stereo not drawn) | 17.4 |
| OCCn1nc2c3ccccc3nc-2n(-c2ccccc2)c1=S | -1.24 |
| COc1ccc(OCC(=O)NNc2c3ccccc3nc3ccccc23)cc1 | 16.8 |
| CCCn1c(SCc2ccccn2)nc2c1c(=O)n(C)c(=O)n2C | 16.5 |
| CCCCOc1ccc(C(=O)NCC(=O)NCC(=O)OCC)cc1 | 1.63 |
| COc1cc(-c2ccccc2)nc(N)n1 | -5.77 |
| O=C(Cn1cccc1C(=O)c1ccccc1)NCCCN1CCc2ccccc2C1 | -41.7 |
| Cc1ccccc1CSCCNC(=O)c1ccc(N(C)S(=O)(=O)c2ccccc2)cc1 | -0.902 |
| COc1ccc(C(=O)CSc2nncn2C)cc1 | 10.5 |
| CC(=O)c1ccc(N(C(=O)c2csnn2)C(C(=O)NC2CCCC2)c2ccccc2)cc1 (stereo not drawn) | -15.6 |
| Cl.O=C(NCC1CCNCC1)c1ccncc1 | 7.27 |
| CCC(C(=O)NC(C)(C)C)N(C(=O)Cn1nnc(-c2ccccc2F)n1)c1cnc2ccccc2c1 (stereo not drawn) | 13.2 |
| Cc1csc(C(=O)O)c1-n1cccc1 | 15.7 |
| c1ccc(C(c2ccccc2)N2CCN(Cc3nc(-c4cnccn4)no3)CC2)cc1 | 0.669 |
| COc1cccc(-c2ncc3ccccc3c2COC(=O)N2CCOCC2)c1 | 8.43 |
| COc1ccc(NC(=O)c2ccc(Cl)c(S(=O)(=O)N3CC(C)OC(C)C3)c2)cn1 (stereo not drawn) | 3.96 |
| CCCCNC(=O)Nc1c(C(=O)OC)[nH]c2ccc(C)cc12 | 10 |
